B1: LINE1-mini (parent)
chain: GGCAGAGCUCAACACAGCGUGGCAAAGUGGCUGUGGCUAGACUGCC

The source gives no read counts; variants with many changes may rest on few reads.

The variants in the data set derive from B1. Kind of data set: self-cleavage, relative activity (ratio to wild type); higher = more cleavage; in vitro, sequencing; the parent is a self-cleaving ribozyme.
A11G A16C A39C: the self-cleavage came to 0.01.

As to C3U G17U C23U G44U, the self-cleavage came to 0.02.

Consider C8A G22C G33A, for which the self-cleavage was found to be 0.15.

Consider U9C C10G U20C A39C C42U, for which the self-cleavage worked out at 0.01.

For G5A C8U A11U A12C G22U, the self-cleavage came to 0.03.

Regarding A12G C23A U32G G35U U38C, the self-cleavage came to 0.03.

Regarding A14C C15G G35A A41U U43A, the self-cleavage was determined as 0.01.

Regarding G2A C23A G40A, the self-cleavage came out at 0.32.

As for A6C C15U G30C A39C C46G, the self-cleavage was found to be 0.06.

As to A4U A6C A11C G19A C23U G35C C37G, the self-cleavage was 0.02.

With C3A U20G C37A, the self-cleavage was found to be 0.14.

In the case of G5U C31U C37G, the self-cleavage was found to be 0.04.

As for G17A A26U G44C, the self-cleavage came out at 0.04.

For G5C G19A C31A G40A, the self-cleavage is 0.03.

As to G5C G19U G33A G36C, the self-cleavage amounted to 0.01.

Turning to G7A G21C G22C G27C G40C G44C, the self-cleavage was determined as 0.03.

For the variant A39U G40U A41C, the self-cleavage worked out at 0.14.

For A6G U9G G30U G36C C37G C46A, the self-cleavage was determined as 0.1.

In the case of G7C C8G U20C A41C, the self-cleavage was 0.21.

Take C8U C10A G17C U38A C42G: the self-cleavage amounted to 0.01.

As to C3U G22A G40C G44A, the self-cleavage was 0.02.

On to A16U U20C C42G, for which the self-cleavage came to 0.03.

As to G17C G19A C42U, the self-cleavage is 0.16.

A16U G33C G40C: the self-cleavage was 0.02.

Take U38G C42U G44A: the self-cleavage was 0.03.

As to A11C A14U G27A, the self-cleavage worked out at 0.01.

For the variant G2U G22U A25G, the self-cleavage was found to be 0.13.

With U9G C18U G19U C37U, the self-cleavage was 0.11.

C3U G7U A12G C23U: the self-cleavage was found to be 0.03.

Take G5U U9C U38C: the self-cleavage worked out at 0.

Turning to G2A G5C G22U A24G U28G G40U, the self-cleavage turned out to be 0.01.

For G1U G19U A26C U43A, the self-cleavage was determined as 0.02.

For the variant C10A C18G C42U, the self-cleavage was determined as 0.02.

Take G2C A6G G17A C37A: the self-cleavage was 0.01.

Turning to A14G A24G C37U, the self-cleavage was found to be 0.05.

Regarding A26C U28C C45G, the self-cleavage was determined as 0.04.

For G2A U9G C13A A25C G40A, the self-cleavage came out at 0.1.

For C8G A14U G17U, the self-cleavage came to 0.04.

Take C18G G36A A39G: the self-cleavage stood at 0.07.

On to A11U C18G G33A G35C A39C, for which the self-cleavage came to 0.

U9A A25U A39U G44U: the self-cleavage is 0.03.

Consider A16C G40U A41U C42A, for which the self-cleavage came out at 0.01.

With G2A G33A G35A G36U C37A, the self-cleavage turned out to be 0.27.

In the case of G2C A4C A12G G22C G29A, the self-cleavage came to 0.05.

Regarding C3G A4U A26G C42G, the self-cleavage came out at 0.01.

Consider C3U G27U U38C U43C, for which the self-cleavage turned out to be 0.1.

In the case of U9C C15U G35A, the self-cleavage turned out to be 0.06.

As to U34A U38A C45U, the self-cleavage is 0.02.

For C3G G22C C23A A25C C37U, the self-cleavage was determined as 0.04.

As to G7A C8A A16C U28A G30C G33C G35C, the self-cleavage amounted to 0.4.

For the variant U9A C18A G35C C45A, the self-cleavage amounted to 0.01.

Consider A16G C31U G33A G36U C46U, for which the self-cleavage amounted to 0.02.

G7C A11U A25U U43A: the self-cleavage worked out at 0.01.

With G1A A11G G27U, the self-cleavage is 0.05.

On to G5C C13U C15G G17U, for which the self-cleavage was 0.01.

For the variant C3A U9G A11C G17A C23A C31A G36U, the self-cleavage stood at 0.01.

Take U9C G22A A24U C37A U38G: the self-cleavage was 0.01.

Regarding A4G C8G C23A C46U, the self-cleavage turned out to be 0.01.

On to G7A G27C U32G G36C, for which the self-cleavage was determined as 0.1.

Consider G2A A6G C15A, for which the self-cleavage came to 0.01.

Consider C13A C18U G33U, for which the self-cleavage is 0.06.

Consider C10G C15A G21U G30A U32A U34G, for which the self-cleavage came to 0.01.

On to G2U C10A G27A, for which the self-cleavage is 0.01.

Regarding G5U A11U U20G, the self-cleavage is 0.01.

Consider A26U U28A C31G A39U C46A, for which the self-cleavage stood at 0.02.

G7A C8G A16U A25U U32C: the self-cleavage is 0.01.

As for C10U G29U G30U G44U, the self-cleavage was found to be 0.19.

As to G5A C15G U34G, the self-cleavage is 0.05.

With G5C G27A C31A, the self-cleavage turned out to be 0.07.

Take C3A C18A G22C A39G C46U: the self-cleavage amounted to 0.07.

Turning to G2A G36U A39U, the self-cleavage came to 0.03.

A4U G7A C13U U38A: the self-cleavage is 0.09.

On to C10A C18A C37G, for which the self-cleavage worked out at 0.06.

As to G2C A11C U38A, the self-cleavage turned out to be 0.01.

As to G5C A11C C13U, the self-cleavage was 0.03.

G7A A26C G29U C45A C46U: the self-cleavage is 0.19.

Take C8G A12G C13A C15U C18G G19A A25G C42A: the self-cleavage was 0.01.

Turning to G5U A39G U43C, the self-cleavage was found to be 0.1.

Consider G7A G29U U43A, for which the self-cleavage was 0.77.

Regarding A16C A26C C37A C45A, the self-cleavage is 0.03.

In the case of A6C C8A C15G G27A U34C, the self-cleavage worked out at 0.27.

As to G5C C18G A25U, the self-cleavage came to 0.03.

Turning to G7U G29U C31G, the self-cleavage came out at 0.06.

With G2U U9A A11U C37A, the self-cleavage came to 0.01.

As to U9C G30U U34G A39G, the self-cleavage was 0.

On to A4C C15A G35A C45A, for which the self-cleavage came out at 0.03.

Regarding G17A G27C U34C C37A, the self-cleavage amounted to 0.01.

Regarding A6U G22U U28C U38G, the self-cleavage is 0.01.

A12U A16C A24C: the self-cleavage was 0.

For C3G C13A C46A, the self-cleavage was 0.48.

As for A6U C10A G21U A24U, the self-cleavage came to 0.04.

For the variant A4G A11G A14C, the self-cleavage came to 0.02.

On to A4C G27A U28C C31G, for which the self-cleavage is 0.05.

With G17A G19U C31G U38C, the self-cleavage stood at 0.02.

Consider G35A G36U C46A, for which the self-cleavage was 0.01.

In the case of A24G G27C U28C G44A, the self-cleavage came to 0.51.

For G2U G7C A12G C13G, the self-cleavage is 0.07.

For the variant G5U U9A A26G, the self-cleavage came to 0.18.

For the variant C15G U38A G40U, the self-cleavage turned out to be 0.01.

On to A14U G27C G30U A41U C42G C45U, for which the self-cleavage amounted to 0.04.

Turning to A12C G33A U43G C45G, the self-cleavage turned out to be 0.01.

As to G17A G19U G44U, the self-cleavage was determined as 0.05.

As for G1A A26G C42G U43A C45U, the self-cleavage worked out at 0.01.

In the case of G17A G21C G27A A39U, the self-cleavage was found to be 1.28.

With C10A C18G C23G U34C G35C C42G, the self-cleavage amounted to 0.

Take G7C G19A G35C A39C C46A: the self-cleavage turned out to be 0.01.

As to C8A G17U C37U, the self-cleavage is 0.02.

For the variant A4G G5U G17U, the self-cleavage was determined as 0.03.

Regarding U28C U38A C42U, the self-cleavage worked out at 0.04.

As for C18U A25C U34G G40C, the self-cleavage amounted to 0.02.

With G22C G27U U28A C31G A41G, the self-cleavage came to 0.03.

C13U G19U G27U G40A C45G: the self-cleavage was 0.03.

As for A11U G19A A26U G27A G33C, the self-cleavage worked out at 0.01.

Regarding C3U C10A A11G A14G C15U A39C G40A G44C, the self-cleavage was determined as 0.01.

Consider U32A G35A C45U, for which the self-cleavage was determined as 0.05.

For the variant A4C G7U A39U, the self-cleavage stood at 0.36.

Take G5A C8A C13A: the self-cleavage worked out at 0.24.

Take C3A G22U C31U: the self-cleavage is 0.12.

Take G2U C10U A11C C31G: the self-cleavage was found to be 0.01.

As for G5C C8A A11C C13A, the self-cleavage amounted to 0.02.

Regarding G7U U9A G19U, the self-cleavage was found to be 0.1.

Turning to G19U G29A G33A C42U, the self-cleavage came to 0.06.

G5A A12G U34C G36C A41G: the self-cleavage was determined as 0.01.

Regarding G29U U38C U43A, the self-cleavage is 0.11.

With A12G C13U G30A, the self-cleavage is 0.

Consider C10U A25U C46A, for which the self-cleavage was found to be 0.22.

For the variant G5U C10U C42U U43A G44C, the self-cleavage worked out at 0.02.

Take C15A A24U G36C: the self-cleavage is 0.18.

As for G1U G5C A6G C10A A14G A26C G29U, the self-cleavage was 0.

Turning to A12C G17U C18U G35C U43A C46U, the self-cleavage turned out to be 0.

Turning to C15A G30A U38G C42U, the self-cleavage came out at 0.01.

For C13A G19C C37A, the self-cleavage stood at 0.01.

Take C3U A14G U20C A26U: the self-cleavage was found to be 0.49.

Take C31A G33U G35A A39C U43C: the self-cleavage was determined as 0.04.

For G2A U9G C15U C45A, the self-cleavage was determined as 0.05.

As for A25C G27U C31U, the self-cleavage was found to be 0.14.

For G35U C42U C46U, the self-cleavage is 0.06.

Regarding G2A G19A U20C A24G G30C A41G, the self-cleavage was 0.06.

As to C13U A26G A39G, the self-cleavage was 0.04.

For the variant A4C G35A C45G, the self-cleavage came out at 0.17.

As to G7C A12C G19U U20C U38G C42A, the self-cleavage stood at 0.

As for C10U U32G G44C C45G, the self-cleavage came out at 0.

For G21C G27U G33A G40C, the self-cleavage amounted to 0.03.

With C3U G33U G36C, the self-cleavage amounted to 0.09.

G5C G19A G29U C31A G36A C42G: the self-cleavage stood at 0.01.

With G1U G21U C23U C42A, the self-cleavage is 0.19.

For the variant A12C A25U G36C, the self-cleavage was determined as 0.

Consider A4G U9A C15G G27A C46G, for which the self-cleavage worked out at 0.08.

Consider U9G A11U A12C C18A G21U G27A, for which the self-cleavage was found to be 0.

With A6G A12U C31G U38C A39U, the self-cleavage turned out to be 0.18.

On to A4U G7A U9G C42U, for which the self-cleavage is 0.08.

Take G40U C45U C46U: the self-cleavage was 0.19.

Take G17A U20A U43G: the self-cleavage was 0.03.

For the variant C3G G7C C10U C31A G40A, the self-cleavage was 0.04.

Take G27C G36U G40C A41U: the self-cleavage came to 0.13.

As to G7A A11C C13A G30U G40C, the self-cleavage is 0.02.

For the variant C8A G30A G40A C42A U43G, the self-cleavage is 0.26.

G2U G19A G22A G30C G33A: the self-cleavage was determined as 0.02.

With A11U A16U U28C U32A G36A, the self-cleavage stood at 0.02.

Take G5A U34C C45U: the self-cleavage came out at 0.05.

Take G1A A4U G21A U34C C37U: the self-cleavage amounted to 0.14.

In the case of A6U A14U G19U, the self-cleavage turned out to be 0.04.

Regarding U9C C10G C15U G36A G44U, the self-cleavage was found to be 0.02.

Consider C8U A12G C23A, for which the self-cleavage is 0.04.

For C10A A12C G33U, the self-cleavage was 0.

In the case of C8A C15U G35U, the self-cleavage is 1.07.

In the case of G2C A16G C18A, the self-cleavage stood at 0.04.
